Some of the results follow. Binding of human transcription factors and regulators to the viral nucleoprotein by AlphaScreen, crude cell-free proteins, amounts not normalised, one pass. Fold of the Venus control; higher = more signal. No active / inactive call. Single-pass screen; sequences are the whole Swiss-Prot entries looked up by name.
B1: FOXJ1, Q92949 (protein)
chain: MAESWLRLSGAGPAEEAGPEGGLEEPDALDDSLTSLQWLQEFSILNAKAPALPPGGTDPHGYHQVPGSAAPGSPLAADPACLGQPHTPGKPTSSCTSRSAPPGLQAPPPDDVDYATNPHVKPPYSYATLICMAMQASKATKITLSAIYKWITDNFCYFRHADPTWQNSIRHNLSLNKCFIKVPREKDEPGKGGFWRIDPQYAERLLSGAFKKRRLPPVHIHPAFARQAAQEPSAVPRAGPLTVNTEAQQLLREFEEATGEAGWGAGEGRLGHKRKQPLPKRVAKVPRPPSTLLPTPEEQGELEPLKGNFDWEAIFDAGTLGGELGALEALELSPPLSPASHVDVDLTIHGRHIDCPATWGPSVEQAADSLDFDETFLATSFLQHPWDESGSGCLPPEPLFEAGDATLASDLQDWASVGAFL
B2: ATF6B, Q99941 (protein)
chain: MAELMLLSEIADPTRFFTDNLLSPEDWGLQNSTLYSGLDEVAEEQTQLFRCPEQDVPFDGSSLDVGMDVSPSEPPWELLPIFPDLQVKSEPSSPCSSSSLSSESSRLSTEPSSEALGVGEVLHVKTESLAPPLCLLGDDPTSSFETVQINVIPTSDDSSDVQTKIEPVSPCSSVNSEASLLSADSSSQAFIGEEVLEVKTESLSPSGCLLWDVPAPSLGAVQISMGPSLDGSSGKALPTRKPPLQPKPVVLTTVPMPSRAVPPSTTVLLQSLVQPPPVSPVVLIQGAIRVQPEGPAPSLPRPERKSIVPAPMPGNSCPPEVDAKLLKRQQRMIKNRESACQSRRKKKEYLQGLEARLQAVLADNQQLRRENAALRRRLEALLAENSELKLGSGNRKVVCIMVFLLFIAFNFGPVSISEPPSAPISPRMNKGEPQPRRHLLGFSEQEPVQGVEPLQGSSQGPKEPQPSPTDQPSFSNLTAFPGGAKELLLRDLDQLFLSSDCRHFNRTESLRLADELSGWVQRHQRGRRKIPQRAQERQKSQPRKKSPPVKAVPIQPPGPPERDSVGQLQLYRHPDRSQPAFLDAIDRREDTFYVVSFRRDHLLLPAISHNKTSRPKMSLVMPAMAPNETLSGRGAPGDYEEMMQIECEVMDTRVIHIKTSTVPPSLRKQPSPTPGNATGGPLPVSAASQAHQASHQPLYLNHP
B3: LZTS1, Q9Y250 (protein)
chain: MGSVSSLISGHSFHSKHCRASQYKLRKSSHLKKLNRYSDGLLRFGFSQDSGHGKSSSKMGKSEDFFYIKVSQKARGSHHPDYTALSSGDLGGQAGVDFDPSTPPKLMPFSNQLEMGSEKGAVRPTAFKPVLPRSGAILHSSPESASHQLHPAPPDKPKEQELKPGLCSGALSDSGRNSMSSLPTHSTSSSYQLDPLVTPVGPTSRFGGSAHNITQGIVLQDSNMMSLKALSFSDGGSKLGHSNKADKGPSCVRSPISTDECSIQELEQKLLEREGALQKLQRSFEEKELASSLAYEERPRRCRDELEGPEPKGGNKLKQASQKSQRAQQVLHLQVLQLQQEKRQLRQELESLMKEQDLLETKLRSYEREKTSFGPALEETQWEVCQKSGEISLLKQQLKESQTEVNAKASEILGLKAQLKDTRGKLEGLELRTQDLEGALRTKGLELEVCENELQRKKNEAELLREKVNLLEQELQELRAQAALARDMGPPTFPEDVPALQRELERLRAELREERQGHDQMSSGFQHERLVWKEEKEKVIQYQKQLQQSYVAMYQRNQRLEKALQQLARGDSAGEPLEVDLEGADIPYEDIIATEI
B4: LTF, P02788 (protein)
chain: MKLVFLVLLFLGALGLCLAGRRRSVQWCAVSQPEATKCFQWQRNMRKVRGPPVSCIKRDSPIQCIQAIAENRADAVTLDGGFIYEAGLAPYKLRPVAAEVYGTERQPRTHYYAVAVVKKGGSFQLNELQGLKSCHTGLRRTAGWNVPIGTLRPFLNWTGPPEPIEAAVARFFSASCVPGADKGQFPNLCRLCAGTGENKCAFSSQEPYFSYSGAFKCLRDGAGDVAFIRESTVFEDLSDEAERDEYELLCPDNTRKPVDKFKDCHLARVPSHAVVARSVNGKEDAIWNLLRQAQEKFGKDKSPKFQLFGSPSGQKDLLFKDSAIGFSRVPPRIDSGLYLGSGYFTAIQNLRKSEEEVAARRARVVWCAVGEQELRKCNQWSGLSEGSVTCSSASTTEDCIALVLKGEADAMSLDGGYVYTAGKCGLVPVLAENYKSQQSSDPDPNCVDRPVEGYLAVAVVRRSDTSLTWNSVKGKKSCHTAVDRTAGWNIPMGLLFNQTGSCKFDEYFSQSCAPGSDPRSNLCALCIGDEQGENKCVPNSNERYYGYTGAFRCLAENAGDVAFVKDVTVLQNTDGNNNEAWAKDLKLADFALLCLDGKRKPVTEARSCHLAMAPNHAVVSRMDKVERLKQVLLHQQAKFGRNGSDCPDKFCLFQSETKNLLFNDNTECLARLHGKTTYEKYLGPQYVAGITNLKKCSTSPLLEACEFLRK
B5: ZBTB25, P24278 (protein)
chain: MDTASHSLVLLQQLNMQREFGFLCDCTVAIGDVYFKAHRAVLAAFSNYFKMIFIHQTSECIKIQPTDIQPDIFSYLLHIMYTGKGPKQIVDHSRLEEGIRFLHADYLSHIATEMNQVFSPETVQSSNLYGIQISTTQKTVVKQGLEVKEAPSSNSGNRAAVQGDHPQLQLSLAIGLDDGTADQQRACPATQALEEHQKPPVSIKQERCDPESVISQSHPSPSSEVTGPTFTENSVKIHLCHYCGERFDSRSNLRQHLHTHVSGSLPFGVPASILESNDLGEVHPLNENSEALECRRLSSFIVKENEQQPDHTNRGTTEPLQISQVSLISKDTEPVELNCNFSFSRKRKMSCTICGHKFPRKSQLLEHMYTHKGKSYRYNRCQRFGNALAQRFQPYCDSWSDVSLKSSRLSQEHLDLPCALESELTQENVDTILVE
B6: FOXN2, P32314 (protein)
chain: MGPVIGMTPDKRAETPGAEKIAGLSQIYKMGSLPEAVDAARPKATLVDSESADDELTNLNWLHESTNLLTNFSLGSEGLPIVSPLYDIEGDDVPSFGPACYQNPEKKSATSKPPYSFSLLIYMAIEHSPNKCLPVKEIYSWILDHFPYFATAPTGWKNSVRHNLSLNKCFQKVERSHGKVNGKGSLWCVDPEYKPNLIQALKKQPFSSASSQNGSLSPHYLSSVIKQNQVRNLKESDIDAAAAMMLLNTSIEQGILECEKPLPLKTALQKKRSYGNAFHHPSAVRLQESDSLATSIDPKEDHNYSASSMAAQRCASRSSVSSLSSVDEVYEFIPKNSHVGSDGSEGFHSEEDTDVDYEDDPLGDSGYASQPCAKISEKGQSGKKMRKQTCQEIDEELKEAAGSLLHLAGIRTCLGSLISTAKTQNQKQRKK
B7: NPAS2, Q99743 (protein)
chain: MDEDEKDRAKRASRNKSEKKRRDQFNVLIKELSSMLPGNTRKMDKTTVLEKVIGFLQKHNEVSAQTEICDIQQDWKPSFLSNEEFTQLMLEALDGFIIAVTTDGSIIYVSDSITPLLGHLPSDVMDQNLLNFLPEQEHSEVYKILSSHMLVTDSPSPEYLKSDSDLEFYCHLLRGSLNPKEFPTYEYIKFVGNFRSYNNVPSPSCNGFDNTLSRPCRVPLGKEVCFIATVRLATPQFLKEMCIVDEPLEEFTSRHSLEWKFLFLDHRAPPIIGYLPFEVLGTSGYDYYHIDDLELLARCHQHLMQFGKGKSCCYRFLTKGQQWIWLQTHYYITYHQWNSKPEFIVCTHSVVSYADVRVERRQELALEDPPSEALHSSALKDKGSSLEPRQHFNTLDVGASGLNTSHSPSASSRSSHKSSHTAMSEPTSTPTKLMAEASTPALPRSATLPQELPVPGLSQAATMPAPLPSPSSCDLTQQLLPQTVLQSTPAPMAQFSAQFSMFQTIKDQLEQRTRILQANIRWQQEELHKIQEQLCLVQDSNVQMFLQQPAVSLSFSSTQRPEAQQQLQQRSAAVTQPQLGAGPQLPGQISSAQVTSQHLLRESSVISTQGPKPMRSSQLMQSSGRSGSSLVSPFSSATAALPPSLNLTTPASTSQDASQCQPSPDFSHDRQLRLLLSQPIQPMMPGSCDARQPSEVSRTGRQVKYAQSQTVFQNPDAHPANSSSAPMPVLLMGQAVLHPSFPASQPSPLQPAQARQQPPQHYLQVQAPTSLHSEQQDSLLLSTYSQQPGTLGYPQPPPAQPQPLRPPRRVSSLSESSGLQQPPR
B8: SFRP4, Q6FHJ7 (protein)
chain: MFLSILVALCLWLHLALGVRGAPCEAVRIPMCRHMPWNITRMPNHLHHSTQENAILAIEQYEELVDVNCSAVLRFFLCAMYAPICTLEFLHDPIKPCKSVCQRARDDCEPLMKMYNHSWPESLACDELPVYDRGVCISPEAIVTDLPEDVKWIDITPDMMVQERPLDVDCKRLSPDRCKCKKVKPTLATYLSKNYSYVIHAKIKAVQRSGCNEVTTVVDVKEIFKSSSPIPRTQVPLITNSSCQCPHILPHQDVLIMCYEWRSRMMLLENCLVEKWRDQLSKRSIQWEERLQEQRRTVQDKKKTAGRTSRSNPPKPKGKPPAPKPASPKKNIKTRSAQKRTNPKRV
B9: PRDM5, Q9NQX1 (protein)
chain: MLGMYVPDRFSLKSSRVQDGMGLYTARRVRKGEKFGPFAGEKRMPEDLDENMDYRLMWEVRGSKGEVLYILDATNPRHSNWLRFVHEAPSQEQKNLAAIQEGENIFYLAVEDIETDTELLIGYLDSDMEAEEEEQQIMTVIKEGEVENSRRQSTAGRKDRLGCKEDYACPQCESSFTSEDILAEHLQTLHQKPTEEKEFKCKNCGKKFPVKQALQRHVLQCTAKSSLKESSRSFQCSVCNSSFSSASSFEQHQETCRGDARFVCKADSCGKRLKSKDALKRHQENVHTGDPKKKLICSVCNKKCSSASSLQEHRKIHEIFDCQECMKKFISANQLKRHMITHSEKRPYNCEICNKSFKRLDQVGAHKVIHSEDKPYKCKLCGKGFAHRNVYKNHKKTHSEERPFQCEECKALFRTPFSLQRHLLIHNSERTFKCHHCDATFKRKDTLNVHVQVVHERHKKYRCELCNKAFVTPSVLRSHKKTHTGEKEKICPYCGQKFASSGTLRVHIRSHTGERPYQCPYCEKGFSKNDGLKMHIRTHTREKPYKCSECSKAFSQKRGLDEHKRTHTGEKPFQCDVCDLAFSLKKMLIRHKMTHNPNRPLAECQFCHKKFTRNDYLKVHMDNIHGVADS

target: nucleoprotein N of Crimean-Congo hemorrhagic fever virus; experiment: AlphaScreen luminescence signal relative to Venus negative control (fold); higher = stronger binding to CCHFV N
Protocol: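 AlphaScreen binding of cell-free made, FLAG-GST-tagged human transcription factors and regulators (crude translation products) to biotinylated N protein; signal as fold of the FLAG-GST-Venus control. One pass.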

Row | Binder | AlphaScreen luminescence signal
1 | B1 | 2.14
2 | B2 | 2.98
3 | B3 | 1.49
4 | B4 | 2.88
5 | B5 | 1.91
6 | B6 | 2.6
7 | B7 | 1.77
8 | B8 | 6.09
9 | B9 | 3.44
